According to PubChem BioAssay AID1745853 (National Center for Advancing Translational Sciences (NCATS), 2022):
This is one part of the list. The main result of the screen is listed elsewhere. These columns were measured beside it and carry no call. Square brackets hold non-standard residues; d marks the D form. Peptide text beside a SMILES is read from it. ξ: configuration not given here. ξLac(3-iPr) = CC(C)CC(O)C(=O)O; NMeV = CN[CH](C(=O)O)C(C)C; NMeA = CN[CH](C)C(=O)O; βAla = NCCC(=O)O

Experiments:
Test in all cases: Primary Screen for Target Class Profiling of Small Molecule Inhibitors of Methyltransferases
[1] = target: Glycine N-methyltransferase (Homo sapiens) (UniProt Q14749); conditions: purified enzyme, MTase-Glo SAH luminescence; measured here: GNMT inhibition; at 40 µM; stronger effect = lower value
Summary of the method: (§1)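 Each enzyme was assayed with SAM and its substrate. SAH formation detected by MTase-Glo luminescence; single-point 40 uM screen[…].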

[2] = target: Guanidinoacetate N-methyltransferase (Homo sapiens) (UniProt Q14353); conditions: purified enzyme, MTase-Glo SAH luminescence; measured here: GAMT inhibition; at 40 µM; stronger effect = lower value
Summary of the method: as §1

[3] = target: Histamine N-methyltransferase (Homo sapiens) (UniProt P50135); conditions: purified enzyme, MTase-Glo SAH luminescence; measured here: HNMT inhibition; at 40 µM; stronger effect = lower value
Summary of the method: as §1

[4] = target: Nicotinamide N-methyltransferase (Homo sapiens) (UniProt P40261); conditions: purified enzyme, MTase-Glo SAH luminescence; measured here: NNMT inhibition; at 40 µM; stronger effect = lower value
Summary of the method: as §1

[5] = target: Phenylethanolamine N-methyltransferase (Homo sapiens) (UniProt P11086); conditions: purified enzyme, MTase-Glo SAH luminescence; measured here: PNMT inhibition; at 40 µM; stronger effect = lower value
Summary of the method: as §1
% is set by controls: 0 for no effect and ±100 for the full control effect.

| Structure (SMILES) | activity change, negative = inhibition [1] [%] | activity change, negative = inhibition [2] [%] | activity change, negative = inhibition [3] [%] | activity change, negative = inhibition [4] [%] | activity change, negative = inhibition [5] [%] |
| --- | --- | --- | --- | --- | --- |
| CCCN(CCC)[C@@H]1CCc2cccc(O)c2C1 | -9.66 | 3.13 | -17.8 | -6.34 | 5.53 |
| Cc1ccc(CNC(=O)N2Cc3ccccc3-n3cccc3C2c2ccccc2C)cc1 (stereo not drawn) | 6.32 | 0 | -2.25 | -1.54 | 0.094 |
| O=C(Nc1ccccc1)N1Cc2ccccc2-n2cccc2C1c1ccccc1Cl (stereo not drawn) | 9.14 | 0.727 | 1.67 | 0.62 | 4.21 |
| Cc1c(Cl)cccc1NC(=O)N1Cc2ccccc2-n2cccc2C1c1ccc(N(C)C)cc1 (stereo not drawn) | 12.9 | 0.262 | 3.97 | 8.25 | 5.27 |
| CCCN1CCc2cc(O)cc3c2[C@H]1Cc1ccc(O)c(O)c1-3 | -92.7 | 2.63 | -29.5 | -12.6 | 2.37 |
| CN1C(=O)c2ccccc2NC(=O)[C@]12O[C@@H]2c1ccccc1 | -2.47 | -5.32 | 9.13 | -17.7 | -10.8 |
| Cc1ccc(NC(=O)N2C[C@@H]3C[C@H](C2)c2c(-c4cccs4)ccc(=O)n2C3)cc1 | -11 | -9.4 | -4.97 | -21.3 | -11.2 |
| CCc1ccc(C2c3cccn3-c3ccccc3CN2C(=O)NCc2ccc(F)cc2)cc1 (stereo not drawn) | 5.49 | 0.757 | -1.55 | 2.3 | 5.61 |
| CC(C)NC(=O)NC[C@H]1C[C@@H]2CCN1C[C@@H]2CN1CCSCC1 | -6.02 | -5.82 | -13 | -9.86 | -1.95 |
| CCOC(=O)C1(CCc2ccccc2)CCN(Cc2ccc(NC(C)=O)cc2)CC1 | -4.14 | -8.9 | -4.6 | -28 | -4.69 |
| COCCCNC(=O)N1Cc2ccccc2-n2cccc2C1c1cc(F)cc(F)c1 (stereo not drawn) | 7.24 | 3.24 | 3.42 | -4.09 | 3.06 |
| Cc1cccc(C2c3cccn3-c3ccccc3CN2C(=O)NCc2ccc(F)cc2)c1 (stereo not drawn) | 7.04 | 2.79 | 1.7 | -2.96 | 1.46 |
| CCc1ccc(C2c3cccn3-c3ccccc3CN2C(=O)Nc2cccc(C(F)(F)F)c2)cc1 (stereo not drawn) | 9.46 | 4 | 2.7 | -4.38 | 1.84 |
| Ic1ccccc1CNC1C2CCN(CC2)C1C(c1ccccc1)c1ccccc1 (stereo not drawn) | -12.7 | 9.67 | -13.2 | -11.5 | -12.6 |
| CCOc1ccc(NC(=O)N2Cc3ccccc3-n3cccc3C2c2ccc(C)cc2)cc1 (stereo not drawn) | 12.1 | 0 | 9.21 | 9.03 | 6.36 |
| CC(C)C1CN2CCCC2CN1 (stereo not drawn) | -1.51 | -1.05 | 1.56 | 1.49 | -1.4 |
| COc1cccc(CNC(=O)N2Cc3ccccc3-n3cccc3C2c2ccc(Cl)cc2)c1 (stereo not drawn) | 2.68 | 1.56 | 4.23 | 4.3 | 6.83 |
| COc1ccc2c(c1)/C(=C/c1cnc[nH]1)C(=O)N2 | – | -4.29 | – | -18.9 | -19.6 |
| COCCCNC(=O)N1Cc2ccccc2-n2cccc2C1c1ccc(SC)cc1 (stereo not drawn) | -3.64 | 0 | -3.17 | -12 | 2.23 |
| CCOC(=O)Cc1ccc(NC(=O)N2Cc3ccccc3-n3cccc3C2c2ccccc2)cc1 (stereo not drawn) | 4.05 | 4.08 | 2.57 | -1.05 | -0.304 |
| O=C(c1cccs1)N1C[C@@H]2C[C@H](C1)c1ccc(C3CCCCC3)c(=O)n1C2 | -7.34 | -9.72 | -4.46 | -18 | -2.73 |
| CCCN(CCC)CCc1ccc(O)c(O)c1 | -4.25 | 4.92 | -14.6 | -4.87 | 10.3 |
| Cc1cccc(C2c3cccn3-c3ccccc3CN2C(=O)Nc2ccc(Cl)cc2)c1 (stereo not drawn) | 5.51 | 4.09 | -3.13 | -0.495 | 3.23 |
| Cc1ccc(NC(=O)N2Cc3ccccc3-n3cccc3C2C(C)C)cc1 (stereo not drawn) | -0.529 | 0 | 9.23 | 11.1 | 9.88 |
| O=[S+]1([O-])NC2(CCN(Cc3cccnc3)C2)COc2ccncc21 (stereo not drawn) | -1.66 | 0.821 | 0.25 | 0.564 | -5.43 |
| CCC(C)C1NC(=O)C2CCCN2C(=O)C(CC(C)C)OC(=O)CCNC(=O)C(C)N(C)C(=O)C(C(C)C)N(C)C1=O (stereo not drawn) (cyclo([ξLac(3-iPr)]PI[NMeV][NMeA][βAla]); configuration not given here) | 3.23 | 2 | 11.4 | -10.1 | 5.84 |
| COC1C(O)C(C)OC(OC2C(CO)O[C@@H](O[C@@H]3CC4CCC5C(CC[C@]6(C)[C@@H](C7=CC(=O)OC7)CC[C@]56O)[C@@]4(C)[C@H](OC(C)=O)C3)C(O)C2O)C1O (stereo partly drawn) | 2.53 | 3.17 | 9.33 | -8.49 | 5.99 |
| Cc1ccccc1C1c2cccn2-c2ccccc2CN1C(=O)Nc1cccc(Br)c1 (stereo not drawn) | 15.7 | 1.18 | 8.26 | 10.2 | 9.62 |
| COc1ccc(NC(=O)N2Cc3ccccc3-n3cccc3C2c2ccc(C)cc2)cc1 (stereo not drawn) | 1.79 | 1.98 | 1.99 | -0.771 | -2.17 |
| CCc1ccc(C2c3cccn3-c3ccccc3CN2C(=O)Nc2ccc3c(c2)OCCO3)cc1 (stereo not drawn) | 13.5 | 3.89 | 5.25 | 7.33 | 10.3 |
